{"source": "PubChem BioAssay AID1508642", "about": "(National Center for Advancing Translational Sciences (NCATS), 2021)", "note": "The whole screen tested about 43,000 compounds, of which about 200 (0.47%) were called active. Not shown: some 12% with an inconclusive outcome. Calls come from the whole dose curve; as a rule, active = well fitted cell-killing curve with a large enough effect; inconclusive = small, poorly fitted or top-dose-only effect, or effect the other way; inactive = flat fitted curve, though single readings scatter. Some of the results follow. % is set by controls: 0 for no effect and ±100 for the full control effect."}
{"assay": "Cell viability qHTS assay in S16 Pmp22-F2sN cells; note: nearly all actives have a fitted effect of over 65% in size", "conditions": "S16 Pmp22-F2sN Schwann cells (luciferase reporters placed in the Pmp22 gene) viability, CellTiter-Glo, 24 h; series mostly up to 57.5 µM; activity change, negative = cytotoxicity: at the top concentration", "excerpt": "Assay Provider: Jim Inglese Ph.D. National Center for Advancing Translational Science, National Institutes of Health, Rockville, MD CMT is a heterogeneous group of neurological disorders that affect approximately 1 in 2,500 people. In particular, the most common form of CMT, CMT1A is genetically linked to the duplication of the PMP22 gene which leads to Schwann cell overexpression, thus manifesting itself as a typical case of dose-sensitive diseases. To identify small molecule compounds that can mediate the expression of PMP22 we developed a phenotypic assay screening strategy by utilizing genome editing techniques to construct Schwann cell lines containing novel reporter technology to monitor the transcriptional or translational regulation of PMP22. For high sensitivity we use a bioluminescent reporter system embedded in the 3' UTR of the PMP22 gene (S16(c9) Pmp22-F2sN) to identify compounds that inhibit gene expression. […] We can further discriminate the effect of all transcriptionally active molecules on PMP22 translation or stability with an assay that incorporates a short NLuc peptide (HiBiT) at the C-terminus of expressed PMP22 (S16(f8) PMP22-HiBiT) allowing alpha complementation and luminescence detection of membrane-associated PMP22 protein. These assays were screened against the NCATS Sytravon Library Collection. Miniaturization of these assays to 1536-well plate format for quantitative high throughput screening (qHTS) yielded rich data sets immediately from the qHTS assay (S16(c9) Pmp22-F2sN), when compared with data from a cell viability assay (Cell TiterGlo) to identify compounds that decreased the output signals through cellular toxicity to streamline the selection process of actives for subsequent characterization using the HiBiT assay (S16(f8) PMP22-HiBiT).\nCell viability assay in S16 Pmp22-F2sN cells PROTOCOL TABLE (format as described by Inglese J, Shamu CE and Guy RK. 2007) SEQUENCE No. (e.g., 1, 2, 3, etc.); […] (e.g., Cells, Incubation, Reagent, etc.); VALUE and DESCRIPTION. 1. Cells. Add 500-1,000 cells in 4 uL in growth media (DMEM High Glucose, No Phenol Red media + 10% heat-inactivated FBS + 1% Pen/Strep supplemented media) per well into Greiner 1536-well white/solid bottom high base, TC-treated plates. 2. Compounds. Library compounds and controls added at 23nL per well, transferred by Pin Tool. 3. Incubation. Incubate plates at 37C, 5% CO2, 95% RH for 24 h. 4. Reagent. Add 3uL CellTiter-Glo per well of Greiner 1536-well plates. 5. Incubation. Incubate plates at room temperature for 15 min., protect from light. 6. Detector. FLuc luminescence measured using CCD-based camera (Viewlux). NOTES (numbers refer to Sequence numbers above; values are from representative experiments) 6. Luminescence Read: Clear filter; Exposure = 1 sec, Gain = High, Speed = Slow, Binning = 2X REFERENCES: 1. Inglese J, Shamu CE and Guy RK, Reporting data from high throughput screening of small molecule libraries, Nature Chemical Biology, 2007, 3(8): 438-441. doi.org/10.1038/nchembio0807-438 2. Yasgar A, Shinn P, Jadhav A, Auld DS, Michael S, Zheng W, Austin CP, Inglese J and Simeonov A, Compound Management for Quantitative High-Throughput Screening. J. Assoc. Lab. Auto., 2008, 13: 79-89. doi: 10.1016/j.jala.2007.12.004"}
{"smiles": "Cc1nc2ccc(S(=O)(=O)N(CC(=O)Nc3cccc(Cl)c3)Cc3ccccc3)cc2s1", "activity change, negative = cytotoxicity": "inactive: -24.2%"}
{"smiles": "CCn1c(=O)n(-c2ccc(F)cc2)c(=O)c2sc3ccccc3c21", "activity change, negative = cytotoxicity": "inactive: 1.31%"}
{"smiles": "CC(C)(C)OC(=O)N1CCC(c2c(C(=O)N3CCN(c4ccccc4)CC3)cnn2-c2ccccc2)CC1", "activity change, negative = cytotoxicity": "inactive: 5.71%"}
{"smiles": "CCOC(=O)c1c(Nc2ccc(F)cc2)nnc(-c2ccccc2)c1-c1ccccc1", "activity change, negative = cytotoxicity": "inactive: -19.8%"}
{"smiles": "COc1ccc(CCNC(=O)c2ccc3c(c2)N(Cc2cc(C)ccc2C)C(=O)c2ccccc2S3=O)cc1OC", "note": "(stereo not drawn)", "activity change, negative = cytotoxicity": "inactive: 10.8%"}
{"smiles": "COc1ccc(-c2nc(SCC(=O)N3CCN(c4ccc(F)cc4)CC3)n[nH]2)cc1", "activity change, negative = cytotoxicity": "inactive: 5.03%"}
{"smiles": "CCCCOc1ccc(CNC(=O)Cc2ccc(NC(=O)N3CCCCc4ccccc43)cc2)cc1", "activity change, negative = cytotoxicity": "inactive: -1.32%"}
{"smiles": "CC(=O)N1CCC2(CC1)OC(=O)C(C)=C2C(=O)Nc1cc(C)ccc1C", "activity change, negative = cytotoxicity": "inactive: 3.29%"}
{"smiles": "CCCN(C(=O)c1cc2ccc3cccnc3c2[nH]1)c1ccc(F)cc1", "activity change, negative = cytotoxicity": "inactive: 2.15%"}
{"smiles": "Cc1cc(Br)ccc1NC(=O)Cn1cnc2sc(C)c(S(=O)(=O)N3CCN(C)CC3)c2c1=O", "activity change, negative = cytotoxicity": "inactive: 1.23%"}
{"smiles": "COC(=O)c1sc2cccc(F)c2c1S(=O)(=O)Nc1ccc(N(C)C)cc1", "activity change, negative = cytotoxicity": "inactive: 3.73%"}
{"smiles": "COc1ccc(C)cc1NC(=O)Cn1c(=O)cc(C)c2c(C)nn(C)c21", "activity change, negative = cytotoxicity": "inactive: -13.1%"}
{"smiles": "Cc1nc(-c2ccc(Cl)cc2)sc1CCNC(=O)Cc1ccc(F)cc1", "activity change, negative = cytotoxicity": "inactive: -4.93%"}
{"smiles": "O=S(=O)(c1ccccc1)c1nc(-c2ccc(Cl)cc2Cl)oc1N1CCCCC1", "activity change, negative = cytotoxicity": "inactive: 10.7%"}
{"smiles": "CCN(CC)CCCNC(=O)c1cn(CC)c2ccc(S(=O)(=O)N3CCc4ccccc4C3)cc2c1=O", "activity change, negative = cytotoxicity": "inactive: -0.216%"}
{"smiles": "Cc1ccc(C(=O)Nc2cccc(O)c2)cc1S(=O)(=O)N1CCCCCC1", "activity change, negative = cytotoxicity": "inactive: 1.76%"}
{"smiles": "CCCCSCCCNC(=O)c1cn(C)c2ccc(S(=O)(=O)N3CCCCC3)cc2c1=O", "activity change, negative = cytotoxicity": "inactive: -2.94%"}
{"smiles": "Cc1ccc(-n2cc(-c3ccccc3)nc2S(=O)(=O)CC(=O)Nc2ccc(F)cc2)cc1", "activity change, negative = cytotoxicity": "inactive: -15.9%"}
{"smiles": "COc1ccc(-n2nc(C(=O)Nc3ccc(C)cn3)c3c4ccccc4n(C)c3c2=O)cc1", "activity change, negative = cytotoxicity": "inactive: 6.21%"}
{"smiles": "Cc1ccc(N(CC(=O)NCc2ccc(F)cc2)S(=O)(=O)c2c(C)nn(C)c2C)cc1", "activity change, negative = cytotoxicity": "inactive: 3.94%"}
{"smiles": "COc1cccc(CNC(=O)c2ccc3c(c2)nnn3C2CCCC2)c1", "activity change, negative = cytotoxicity": "inactive: 6.18%"}
{"smiles": "Cc1ccc(C)c(N2CCN(C(=O)C3CCCN(S(=O)(=O)c4cccc5nsnc45)C3)CC2)c1", "note": "(stereo not drawn)", "activity change, negative = cytotoxicity": "inactive: -11.1%"}
{"smiles": "O=C(CNC(=O)c1ccccc1F)OCc1cc(=O)n2ccsc2n1", "activity change, negative = cytotoxicity": "inactive: 4.04%"}
{"smiles": "CCN(CC)C(=O)Cn1c(=O)n(-c2ccc(OC)cc2OC)c(=O)c2c(C)c(C(=O)N(CC)CC)sc21", "activity change, negative = cytotoxicity": "inactive: -1.48%"}
{"smiles": "COc1ccc(NC(=O)c2c(-c3ccc(C)cc3)nnc3ccccc23)cc1Cl", "activity change, negative = cytotoxicity": "inactive: 0.41%"}
{"smiles": "COc1ccccc1C(=O)Nc1nnc(SCc2cc(=O)c3cc(Cl)ccc3[nH]2)s1", "activity change, negative = cytotoxicity": "inactive: -0.887%"}
{"smiles": "COc1ccc(OC)c(NC(=O)Cn2ccc3ccccc3c2=O)c1", "activity change, negative = cytotoxicity": "inactive: 15.1%"}
{"smiles": "CCC(=O)Nc1ccc2nc(SCCOc3ccccc3)sc2c1", "activity change, negative = cytotoxicity": "inactive: 4.46%"}
{"smiles": "CC(=O)Nc1nonc1-c1nnc(SCC(=O)Nc2ccccc2)n1-c1ccccc1", "activity change, negative = cytotoxicity": "inactive: -6.44%"}
{"smiles": "CCOc1ccc(CNS(=O)(=O)c2ccc3[nH]c(=O)ccc3c2)cc1", "activity change, negative = cytotoxicity": "inactive: 5.48%"}
{"smiles": "Cn1c(=O)oc2cc(S(=O)(=O)NC(Cc3ccccc3)C(=O)NCc3ccc(F)cc3)ccc21", "note": "(stereo not drawn)", "activity change, negative = cytotoxicity": "inactive: 4.9%"}
{"smiles": "Cc1ccc(C)c(N2CCN(Cc3nnc(-c4ccc5c(c4)OCO5)o3)CC2)c1", "activity change, negative = cytotoxicity": "inactive: 0.269%"}
{"smiles": "COc1ccccc1OC(C)C(=O)Nc1c(C(=O)c2ccc(Cl)cc2)oc2ccccc12", "note": "(stereo not drawn)", "activity change, negative = cytotoxicity": "inactive: 20.4%"}
{"smiles": "CCn1c(C)c(C)c2cc(C(=O)NCCCN3CCCCC3)ccc21", "activity change, negative = cytotoxicity": "inactive: -1.99%"}
{"smiles": "CCC(=O)N1c2ccccc2CC1C(=O)NCCN1CCN(c2cccc(C(F)(F)F)c2)CC1", "note": "(stereo not drawn)", "activity change, negative = cytotoxicity": "inactive: -1.41%"}
{"smiles": "Cc1ccc(NC(=O)CSc2ncn[nH]2)cc1C", "activity change, negative = cytotoxicity": "inactive: 6.82%"}
{"smiles": "CCOc1ccccc1NC(=O)CCc1c(C)nn(-c2ccc(N3CCOCC3)nn2)c1C", "activity change, negative = cytotoxicity": "inactive: -18.2%"}
{"smiles": "Cc1c(Cl)cccc1NC(=O)c1noc2c1CCCC2", "activity change, negative = cytotoxicity": "inactive: -14.7%"}
{"smiles": "CNS(=O)(=O)c1cn(CC(=O)Nc2cccc(OC)c2)cc1S(=O)(=O)NC", "activity change, negative = cytotoxicity": "inactive: 2.77%"}
{"smiles": "COC(=O)c1ccc(-n2c(CCC(=O)O)ccc2-c2ccc(C)cc2)cc1", "activity change, negative = cytotoxicity": "inactive: 16.3%"}
{"smiles": "CCOC(=O)Cn1c(=O)n(CC2CCCO2)c2nc(-c3cccc(C)c3)nc(C(N)=O)c21", "note": "(stereo not drawn)", "activity change, negative = cytotoxicity": "inactive: 23%"}
{"smiles": "Cc1cc2c(cc1C)NC(CC(=O)Nc1ccccc1)C(=O)N2", "note": "(stereo not drawn)", "activity change, negative = cytotoxicity": "inactive: -0.994%"}
{"smiles": "Cc1ccc(O)c(NC(=O)c2ccc(Br)c(S(=O)(=O)N3CCCCC3)c2)c1", "activity change, negative = cytotoxicity": "inactive: 13.9%"}
{"smiles": "CCN(Cc1ccccc1)C(=O)Cn1cc(S(=O)(=O)Cc2cccc(Cl)c2)c2ccccc21", "activity change, negative = cytotoxicity": "inactive: -21.9%"}
{"smiles": "Cc1ccccc1CSc1nc2cc(C(=O)NC3CCCC3)ccc2c(=O)n1Cc1ccccc1", "activity change, negative = cytotoxicity": "inactive: -1.6%"}
{"smiles": "CC1CCN(C(=O)CSc2c(C(C)C)cnc3c2c(=O)n(C)c(=O)n3C)CC1", "activity change, negative = cytotoxicity": "inactive: -23.3%"}
{"smiles": "COC(=O)CC1Oc2ccccc2-n2cc(-c3ccccc3)nc21", "note": "(stereo not drawn)", "activity change, negative = cytotoxicity": "inactive: 25.3%"}
{"smiles": "O=C(CCCn1c(=O)c2cccn2c2ccc(F)cc21)NCc1ccc(Cl)cc1", "activity change, negative = cytotoxicity": "inactive: -2.4%"}
